Laboratory results taken from PubChem BioAssay AID1508642 (National Center for Advancing Translational Sciences (NCATS), 2021).
In all, about 43,000 compounds went through this assay and about 200 (0.47%) were called active. Another 12% or so got no clear call; they are omitted. Calls follow the shape of the dose curve; as a rule, active = well fitted cell-killing curve with a large enough effect; inconclusive = small, poorly fitted or top-dose-only effect, or effect the other way; inactive = flat fitted curve, though single readings scatter. This is one part of the list.

Assay: Cell viability qHTS assay in S16 Pmp22-F2sN cells; also: nearly all actives have a fitted effect of over 65% in size
Settings: S16 Pmp22-F2sN Schwann cells viability, CellTiter-Glo, 24 h; series mostly up to 57.5 µM; activity change, negative = cytotoxicity: at the top concentration
In short: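 Viability was measured by CellTiter-Glo luminescence (15 min, room temperature). This followed 24 h at 37 °C of compound exposure (23 nL pin transfer) in S16 Pmp22-F2sN Schwann cells, 500-1,000 per well.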
% is scaled to controls: 0 for no effect and ±100 for the full control effect; potency is read from the fitted curve at half-maximal effect.

| SMILES | activity change, negative = cytotoxicity | Potency |
| --- | --- | --- |
| O=S1(=O)c2ccccc2N(Cc2cccc(C(F)(F)F)c2)c2ccccc21 | inactive: -15.7% | – |
| Cc1cccc(NC(=O)Cn2c(=O)n(CCCS(=O)(=O)C3CCCCC3)c(=O)c3ccccc32)c1 | inactive: 9.09% | – |
| CCOCCCNC(=O)c1[nH]c2cc(C)ccc2c1Sc1ccc(Cl)cc1 | inactive: -1.15% | – |
| O=C(NCCn1cc(SCc2ccc(Cl)cc2)c2ccccc21)c1cccs1 | inactive: 18.1% | – |
| COc1cc(OC)c(N(C)C(=O)CCNC(=O)Cn2cnc3ccccc3c2=O)cc1Cl | inactive: 14.5% | – |
| CN(C)CCNC(=O)Cn1c(=O)c2cccn2c2ccc(F)cc21 | inactive: 9.41% | – |
| CCOCCc1nn2c(=O)cc(COC(=O)c3ccccc3NC(=O)C3CCCCC3)nc2s1 | inactive: -3.91% | – |
| C#CCSc1nc2sc3c(c2c(=O)n1Cc1ccccc1)CCCC3 | inactive: 20.1% | – |
| COc1ccc(NC(=O)c2sc3nc(-c4ccc(OC)cc4)cc(C(F)(F)F)c3c2N)cc1 | inactive: 4.44% | – |
| Cc1ccc(C)c(CN2C(=O)c3ccccc3S(=O)(=O)c3ccc(C(=O)N4CCN(c5ccccc5)CC4)cc32)c1 | inactive: 2.28% | – |
| Cc1ccccc1Nc1c(-c2ccco2)nc2c(C)cccn12 | inactive: -9.31% | – |
| Cc1ccc(NC(=O)CCS(=O)(=O)c2cccc3nonc23)cc1Cl | inactive: -19.5% | – |
| Cc1ccc(CS(=O)(=O)c2ncc(Cl)c(C(=O)Nc3nc4ccc(C)cc4s3)n2)cc1 | – | active: 20 µM |
| Cc1n[nH]c(C)c1S(=O)(=O)N(CC(=O)Nc1ccc(C(F)(F)F)cc1)c1ccc(C(C)C)cc1 | inactive: -17.6% | – |
| Oc1c(C(c2ccc(Cl)cc2)N2CCC3(CC2)OCCO3)sc2nc(-c3ccco3)nn12 (stereo not given) | inactive: -0.306% | – |
| O=C(Cn1c(=O)oc2ccccc21)Nc1ccc(C(=O)O)cc1 | inactive: -0.167% | – |
| COc1cc(NC(=O)c2cccc3c2C(=O)N(C2CCCCC2)C3)cc(OC)c1 | inactive: 17.8% | – |
| CCn1c(=O)c(C(=O)Nc2ccc(C(C)=O)cc2)nc2ccccc21 | inactive: -5.72% | – |
| CCOc1ccccc1NC(=O)CSc1nc2cc(OC)c(OC)cc2c2nc(-c3ccccc3)nn12 | inactive: 0.79% | – |
| Cn1c(NCCO)nc2c1c(=O)n(Cc1cccc(F)c1)c(=O)n2C | inactive: 0.244% | – |
| COc1cccc(/C=C/c2nc(C#N)c(NCCc3ccc(OC)c(OC)c3)o2)c1 | inactive: -0.305% | – |
| COC(=O)c1ccc2c(c1)N(Cc1ccc(F)cc1)C(=O)c1ccccc1S2 | inactive: 6.05% | – |
| CCCCN(CCCC)S(=O)(=O)c1ccc2oc(C(=O)NCc3ccc(C)cc3)c(C)c2c1 | inactive: -17.6% | – |
| CCCCN1C(=O)C(O)(c2c[nH]c3ccccc23)c2cc(Br)ccc21 (stereo not given) | inactive: -9% | – |

| SMILES | activity change, negative = cytotoxicity | Potency |
| --- | --- | --- |
| CCc1ccc(-c2[nH]c3c(c2-c2sc(C)c(C(=O)OC)c2O)c(=O)[nH]c(=O)n3C)cc1 | inactive: -3.66% | – |
| Cc1nn(C(=O)c2ccc(Br)cc2)c(C)c1S(=O)(=O)N1CCOCC1 | inactive: -3.92% | – |
| Cc1coc2c(C)c3oc(=O)c(CCC(=O)NCCc4ccccc4)c(C)c3cc12 | inactive: 8.27% | – |
| COc1ccc(-c2cc(C(F)(F)F)nc(SCCC(=O)Nc3cc(C)ccc3O)n2)cc1 | inactive: 11.9% | – |
| Cc1ccc(NC(=O)Cn2c(=O)n(Cc3ccco3)c(=O)c3sc4ccccc4c32)cc1C | inactive: -1.22% | – |
| CCOc1ccc(CCNC(=O)c2cnc3c(-c4ccc(F)cc4)c(C)nn3c2C)cc1OCC | inactive: -1.21% | – |
| COc1ccc2c(c1)sc1ncc(C(=O)NCc3ccc(OC(C)C)cc3)c(=O)n12 | inactive: 10.2% | – |
| COc1cc(Cl)c(C)cc1NC(=O)c1cn(C2CCCC2)c(=O)c2c1c1ccccc1n2C | inactive: -5.08% | – |
| COc1ccc(C(=O)Nc2ccc3nc(N4CCC(C)CC4)cc(C)c3c2)cc1 | inactive: 13.7% | – |
| CCOc1ccc(-c2nnc(SCC(=O)NCCc3ccc(OC)c(OC)c3)nc2-c2ccc(OCC)cc2)cc1 | inactive: 14.5% | – |
| O=C(Nc1cccc(OCc2cc(=O)n3c4c(sc3n2)CCCC4)c1)c1ccc(F)cc1 | inactive: 2.52% | – |
| Cc1ccccc1-c1noc(CCC(=O)Nc2cccc(C)c2C)n1 | inactive: -10.1% | – |
| Cc1ccc2nc(-c3cc(NC(=O)/C=C/c4ccccc4)ccc3Cl)oc2c1 | inactive: 12.7% | – |
| CCOCCCNC(=O)C(Cc1ccccc1)NS(=O)(=O)c1ccc2c(c1)c(=O)n(C)c(=O)n2C (stereo not given) | inactive: -0.142% | – |
| COc1ccc(Cl)cc1-n1c(/C=C/c2cccc3ccccc23)nc2ccccc2c1=O | inactive: 5.52% | – |
| CCOc1cccc(C(c2c(C)n(C)n(-c3ccccc3)c2=O)c2c(C)n(C)n(-c3ccccc3)c2=O)c1OC | inactive: 13.4% | – |
| CCOC(=O)c1c(NC(=O)COc2cc(C)ccc2C(C)C)sc(C)c1C | inactive: -3.29% | – |
| CCOc1ccccc1NC(=O)Cn1c(=O)n(-c2ccc(F)cc2)c(=O)c2sc3ccccc3c21 | inactive: 10.5% | – |
| COc1ccc(CCNC(=O)CCCn2c(=O)c3ccccc3n(CC(=O)Nc3cc(Cl)ccc3C)c2=O)cc1OC | inactive: 20.1% | – |
| CCOc1ccc(NC(=O)c2nn(C)c3c2CS(=O)(=O)c2ccccc2-3)cc1 | inactive: 3.67% | – |
| CCOC(=O)c1ccc(N2C(=O)c3n[nH]c(-c4ccco4)c3C2c2ccc(O)cc2)cc1 (stereo not given) | inactive: -0.632% | – |
| CCCn1cc(S(=O)(=O)c2ccccc2)c(=O)c2cc(F)c(N3CCCC(C)C3)cc21 (stereo not given) | inactive: -1.39% | – |
| CCCN(CCC)CCCNC(=O)C1CCN(S(=O)(=O)CC)CC1 | inactive: 19.9% | – |
| Cc1ccc(S(=O)(=O)c2cc3cc(C(=O)O)ccc3oc2=O)cc1 | inactive: 13.3% | – |

| SMILES | activity change, negative = cytotoxicity | Potency |
| --- | --- | --- |
| Cc1ccc(CSCC(=O)N2CCN(c3ccccc3F)CC2)cc1 | inactive: 4.6% | – |
| Cc1ccc(S(=O)(=O)CC(=O)Nc2sc3c(c2C#N)CCCC3)cc1 | inactive: 1.75% | – |
| CCn1cc(CCC(=O)NCc2ccccc2OC)c2ccccc21 | inactive: -6.16% | – |
| CC1=C(C(=O)Nc2ccccc2)C(c2cccnc2)n2nc(SCc3ccccc3Cl)nc2N1 (stereo not given) | inactive: -2.27% | – |
| CCOC(=O)Cn1c(=O)n(C2CCCCC2)c2nc(-c3cccc(F)c3)nc(C(N)=O)c21 | inactive: 19.5% | – |
| Cc1ccccc1NC(=O)Cn1c(=O)oc2cc(Br)ccc21 | inactive: -2.84% | – |
| COc1ccc(N(CC(=O)Nc2cccc(Cl)c2C)S(=O)(=O)c2c(C)nn(C)c2C)cc1 | inactive: 2.49% | – |
| Cc1ccc(NC(=O)c2cccc3c2C(=O)N(C2CCCCC2)C3)c(C)c1 | inactive: 5.26% | – |
| COc1cccc(Cn2c(CNC(=O)Cc3cccc(C)c3)nc3cccnc32)c1 | inactive: 10.6% | – |
| CCCCN(CC)CCCNC(=O)c1nn(C)c2c1CS(=O)(=O)c1ccccc1-2 | inactive: 4.2% | – |
| CCc1c(C)sc(NC(=O)c2cc(-c3cccc(Cl)c3)on2)c1C#N | inactive: -7.38% | – |
| CCOC(=O)C1CCCN(c2cc(C)nc3c(-c4ccccc4OC)c(C)nn23)C1 (stereo not given) | inactive: 3.17% | – |
| Cc1c(C)n(C)c2ccc(C(=O)NCCCN3CCCCC3C)cc12 (stereo not given) | inactive: -19.1% | – |
| O=C(c1cc2c(s1)-c1ccccc1OC2)N1CCN(c2ccccc2F)CC1 | inactive: 12.7% | – |
| CCOc1ccc(CNC(=O)c2ccc(NC(=O)N3CCSc4ncccc43)cc2)cc1OC | inactive: -4.28% | – |
| CN(C)c1cc2c(cc1NC(=O)c1ccc(F)cc1)n(C)c(=O)n2C | inactive: -0.938% | – |
| O=C(NCCCc1nc2ccccc2n1Cc1ccccc1)C1CCCCC1 | inactive: 1.13% | – |
| Cc1ccccc1OCc1ccc(-c2nc(C#N)c(N3CCN(c4ccccc4)CC3)o2)o1 | inactive: 1.43% | – |
| Cc1cccc(-c2nnn3c2nc(NCc2ccccc2)c2ccccc23)c1 | inactive: 2.08% | – |
| CC(C)CCNC(=O)C1CCN(S(=O)(=O)c2cccc3nsnc23)CC1 | inactive: -4.43% | – |
| CNC(=O)C1CCN(Cc2cc3ccccc3n2Cc2cccc(C)c2)CC1 | inactive: -8.31% | – |
| CCc1ccc(-c2cc(C)no2)cc1S(=O)(=O)Nc1ccc(C)cn1 | inactive: -2.14% | – |
| CC(=O)c1ccc(NC(=O)CSc2nnc(NC(=O)Nc3ccccc3)s2)cc1 | inactive: -2.66% | – |
| COc1ccc(Cl)cc1NC(=O)c1ncn(-c2ccccc2)n1 | inactive: -29.1% | – |

| SMILES | activity change, negative = cytotoxicity | Potency |
| --- | --- | --- |
| COc1ccc(OC)c(NC(=O)Cc2c(C)n(C(=O)c3ccc(Cl)cc3)c3ccc(OC)cc23)c1 | inactive: -18.3% | – |
| CCOC(=O)c1cnc2ccc(C(=O)OC)cc2c1Nc1ccc(N2CCOCC2)cc1 | inactive: 0.399% | – |
| CSCCC(NS(=O)(=O)c1cccs1)C(=O)Nc1ccc(C)c(Cl)c1 (stereo not given) | inactive: 5.1% | – |
| CCOc1ccc(CCNC(=O)c2ccc(CS(=O)(=O)c3ccccc3C)o2)cc1OCC | inactive: 1.43% | – |
| CCc1ccccc1Nc1ncnc2c1cnn2-c1ccc(Cl)cc1 | inactive: 2.65% | – |
| CCc1ccccc1NC(=O)c1sc2nc3n(c(=O)c2c1C)CCC3 | inactive: -4.21% | – |
| COc1cc(CN(C(=O)c2ccc(OC(C)C)cc2)C2CCS(=O)(=O)C2)cc(OC)c1OC (stereo not given) | inactive: -9.97% | – |
| CC(=O)c1cccc(NC(=O)CN2C(=O)c3cccnc3Sc3ccccc32)c1 | inactive: -5.86% | – |
| CCc1ccc(NC(=O)Cn2c(=O)n(-c3ccccc3)c(=O)c3ccc(C(=O)NCc4ccc5c(c4)OCO5)cc32)cc1 | inactive: 5.42% | – |
| Cc1ccc(C)c(Cn2c(=O)n(Cc3ccco3)c(=O)c3oc4ccccc4c32)c1 | inactive: 14.9% | – |
| CCOC(=O)c1ccccc1NC(=O)CSc1cc(C)[nH]c(=O)n1 | inactive: -4.53% | – |
| COc1ccc(Cl)cc1NC(=O)CCN1C(=O)c2ccccc2Sc2ncccc21 | inactive: 0.0398% | – |
| CC(=O)N1CCc2cc(S(=O)(=O)NC(CC(C)C)C(=O)NCCc3ccccc3)ccc21 (stereo not given) | inactive: -1.32% | – |
| COc1cc(OC)c(NC(=O)N2CCN3CCCCC3C2)cc1Cl (stereo not given) | inactive: 2.79% | – |
| CC(C)(C)c1cc(C(C)(C)C)c2oc(=O)c(-c3nc4ccc(C(=O)O)cc4[nH]3)cc2c1 | inactive: 19.1% | – |
| Cc1cc(C)c2c(=O)cc(CSc3nnc(-c4ccccc4)n3C)[nH]c2c1 | inactive: -9.59% | – |
| Cc1ccc(Nc2nc3ccccc3c3nnc(C)n23)cc1Cl | inactive: 0.631% | – |
| COc1cc(-c2nnc(SCC(=O)Oc3ccccc3)o2)cc(OC)c1OC | inactive: 10.1% | – |
| COc1ccc(OC)c(Nc2ncc3c(n2)CCN(Cc2cc(OC)c(OC)c(OC)c2)C3)c1 | inactive: 1.25% | – |
| CC(C)C(=O)N1c2nc(C(C)C)nn2C2(CCCCC2)[C@@H]2CCCC[C@@H]21 | inactive: -1.77% | – |
| COc1ccc(CCN2C(=O)N(c3ccc(F)cc3)C(=O)C2CC(=O)Nc2ccc(OC)cc2)cc1 (stereo not given) | inactive: -28.8% | – |
| CCOc1ccc(C(=O)NCC(c2ccc3c(c2)OCO3)N2CCN(c3ccc(F)cc3)CC2)cc1 (stereo not given) | inactive: 3.75% | – |
| CCCC(CCC)C(=O)Nc1cccc(-c2nc3cccnc3s2)c1 | inactive: 25.1% | – |
